The chains are these.
B1: library; a variant is named by its letters at X, in order (parent)
chain: EASNCFAIRHFENKFAVETLICXXXXXXXXX

Single values of this set are uncertain.
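Note: [psi-pin-] Saccharomyces cerevisiae expressing SupN fusions, induced by 100 µM Cu2SO4, selected 7 d at 30 °C without adenine and uracil, scored by deep sequencing of output versus input.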

The data set covers variants of B1. In words: amyloid nucleation score relative to library mode (yeast Sup35 reporter selection) (log enrichment difference); higher = more amyloid nucleation; sequences are the first 22 residues of the Bri2 peptide extended by up to 12 random residues. Conditions: random library (experiment): 3;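 active = nucleation score significantly above 0 at FDR 0.05; inactive = not significantly above 0 or absent from output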.
As to AREMYNRIV, the amyloid nucleation score entry is “inactive”.

As to VLMRSESTP, the amyloid nucleation score entry was “inactive”. With LDAIGLSAS, the amyloid nucleation score result was “inactive”.

In the case of CECDVKGFW, the amyloid nucleation score came to 8.06. The result for MRRHQYVDK reads “inactive”; that for PGGEECLIW, “inactive”. In the case of VLRNELTCP, the amyloid nucleation score entry is “inactive”.

(Values after the supplement of paper PMC12067230.)
